Source: the supplement of paper PMC4967469
By IC50 is meant the dose at which the fit gives 50% viability; a fit beyond the top or the lowest dose is shown as a bound at that dose. AUC is the area under the same curve over the 256-fold range up to the top dose, as a fraction; it is 1 without any effect and falls as sensitivity rises. A top dose marked as inferred was calculated from the reported fits.

How the values were obtained:
Assay in all cases: Viability of human cancer cell lines after 72 h of drug (GDSC screen)
SGC0946 = compound: CC(C)N(CCCNC(=O)Nc1ccc(C(C)(C)C)cc1)C[C@H]1O[C@@H](n2cc(Br)c3c(N)ncnc32)[C@H](O)[C@@H]1O [SGC0946]; conditions: top dose 0.5 µM; top dose inferred
Description: (§1)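 Human cancer cell lines in 384-well plates, medium with 10% serum, drug for 72 h over a 256-fold dose range (nine 2-fold or five 4-fold steps up to the top dose). Adherent lines were fixed and stained with the nucleic acid dye Syto60, suspension lines read with resazurin; signal relative to control wells, capped at 0 and 100%. One two-parameter sigmoid per drug and line, fitted in a mixed model over all curves with the slope shared within a line.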

Bryostatin 1 = compound: CCC/C=C/C=C/C(=O)O[C@H]1/C(=C/C(=O)OC)C[C@H]2C[C@H]([C@@H](C)O)OC(=O)C[C@H](O)C[C@@H]3C[C@H](OC(C)=O)C(C)(C)[C@](O)(C[C@@H]4C/C(=C/C(=O)OC)C[C@H](/C=C/C(C)(C)[C@]1(O)O2)O4)O3 [Bryostatin 1]; conditions: top dose 0.008 µM; top dose inferred
Description: as §1

GW-2580 = compound: COc1ccc(COc2ccc(Cc3cnc(N)nc3N)cc2OC)cc1 [GW-2580]; conditions: top dose 20 µM; top dose inferred
Description: as §1

Lenalidomide = compound: Nc1cccc2c1CN(C1CCC(=O)NC1=O)C2=O [Lenalidomide]; conditions: top dose 5 µM; top dose inferred
Description: as §1

Cell Line	AUC (SGC0946)	IC50 (SGC0946) [nM]	AUC (Bryostatin 1)	IC50 (Bryostatin 1) [nM]	AUC (GW-2580)	IC50 (GW-2580) [µM]	AUC (Lenalidomide)	IC50 (Lenalidomide) [µM]
CAL-120 (breast, adherent)	0.978	> 500	0.976	> 8	0.981	> 20	0.972	> 5
SBC-3 (small cell lung carcinoma, adherent)	0.988	> 500	0.886	7.46	0.988	> 20	0.989	> 5
BHT-101 (thyroid, adherent)	0.972	> 500	0.98	> 8	0.983	> 20	0.964	> 5
MRK-nu-1 (breast, suspension)	0.989	> 500	0.989	> 8	0.99	> 20	0.973	> 5
TT2609-C02 (thyroid, adherent)	0.985	> 500	0.982	> 8	0.981	> 20	0.985	> 5
SH-4 (melanoma, adherent)	0.96	> 500	0.951	> 8	0.972	> 20	0.968	> 5
NCI-H2029 (small cell lung carcinoma, adherent)	0.983	> 500	0.992	> 8	0.979	> 20	0.977	> 5
SiHa (cervix, adherent)	0.985	> 500	0.915	> 8	0.983	> 20	0.987	> 5
COR-L88 (small cell lung carcinoma, adherent)	0.984	> 500	0.983	> 8	0.951	> 20	0.975	> 5
MDA-MB-330 (breast, adherent)	0.982	> 500	0.97	> 8	0.971	> 20	0.949	> 5
LOU-NH91 (lung squamous cell carcinoma, adherent)	0.96	> 500	0.979	> 8	0.98	> 20	0.986	> 5
HuO-3N1 (osteosarcoma, adherent)	0.98	> 500	0.963	> 8	0.982	> 20	0.957	> 5
MDA-MB-175-VII (breast, adherent)	0.986	> 500	0.981	> 8	0.983	> 20	0.988	> 5
HuCCT1 (biliary tract, adherent)	0.982	> 500	0.959	> 8	0.963	> 20	0.983	> 5
BT-483 (breast, adherent)	0.965	> 500	0.974	> 8	0.973	> 20	0.978	> 5
WM278 (melanoma, adherent)	0.934	> 500	0.929	> 8	0.976	> 20	0.975	> 5
RPMI-8402 (T-cell lymphoblastic leukaemia, suspension)	0.98	> 500	0.99	> 8	0.991	> 20	0.99	> 5
SW1417 (large intestine, adherent)	0.985	> 500	0.985	> 8	0.982	> 20	0.986	> 5
G-292 Clone A141B1 (osteosarcoma, adherent)	0.968	> 500	0.954	> 8	0.976	> 20	0.95	> 5
CGTH-W-1 (thyroid, adherent)	0.981	> 500	0.977	> 8	0.984	> 20	0.979	> 5
HSC-4 (head and neck, adherent)	0.969	> 500	0.962	> 8	0.979	> 20	0.846	> 5
LCLC-103H (large cell lung carcinoma, adherent)	0.99	> 500	0.99	> 8	0.989	> 20	0.924	> 5
NCI-H596 (lung adenocarcinoma, adherent)	0.972	> 500	0.98	> 8	0.982	> 20	0.982	> 5
JHH-4 (liver, adherent)	0.986	> 500	0.985	> 8	0.96	> 20	0.984	> 5
LN-18 (glioma, adherent)	0.99	> 500	0.978	> 8	0.992	> 20	0.994	> 5
ME-180 (cervix, adherent)	0.984	> 500	0.982	> 8	0.981	> 20	0.983	> 5
Ca9-22 (head and neck, adherent)	0.987	> 500	0.986	> 8	0.987	> 20	0.985	> 5
VMRC-RCZ (kidney, adherent)	0.981	> 500	0.966	> 8	0.962	> 20	0.982	> 5
SHP-77 (small cell lung carcinoma, semi-adherent)	0.983	> 500	0.991	> 8	0.967	> 20	0.992	> 5
HCC2157 (breast, suspension)	0.96	> 500	0.985	> 8	0.948	> 20	0.979	> 5
